# Reference: PubChem BioAssay AID900 (National Center for Advancing Translational Sciences (NCATS), 2007)
# About 20 (0.03%) of roughly 75,000 compounds were called active. The inconclusive results got no clear call from the source; some entries with a clear call stand among them for comparison. Calls come from the whole dose curve; as a rule, active = well fitted inhibition curve with a large enough effect; inconclusive = small, poorly fitted or top-dose-only effect; inactive = flat fitted curve, though single readings scatter. Potencies beside an inconclusive call are fits to weak or partial responses and may not hold up.
# Biological target: Caspase-1 (Homo sapiens) (UniProt P29466)
# Test: qHTS Assay for Allosteric/Competitive Inhibitors of Caspase-1;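 for activity change, negative = inhibition: plate controls were vehicle for no effect and no substrate for full effect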
# Settings: Caspase-1 enzyme, Ac-WEHD-AFC fluorogenic rate; activity change, negative = inhibition: at 57.5 µM (top of the series) unless noted
# Potency is the fitted concentration of half-maximal effect; tags give direction and shape of the fitted curve or compound fluorescence and quenching.
SMILES,"activity change, negative = inhibition",Potency
Cc1nn(-c2ccccc2)c2sc(C(=O)OCN3C(=O)c4ccccc4C3=O)cc12,inactive: -1.44%,
CCO/C=C/C(=O)N(C)CCC#N,,"inconclusive: 31.6 µM [inhibitor, partial curve]"
CC(=O)N1c2ccccc2NC2=C(C(=O)CCC2)C1c1cccnc1 (configuration not stated),inactive: -1.06%,
CCCNC(=O)OC[C@@H]1O[C@H](CCO/N=C(\C)CCN2CCCCc3nc(C)c(C)cc32)C=C[C@@H]1Oc1ccc(OC)cc1,inactive: -1.81% [at 11.5 µM],
COc1ccc(-c2nc(SC)n(C)c(=O)c2C#N)cc1OC,,"inconclusive: 31.6 µM [inhibitor, single point]"
N#CC1=C(N)C(C#N)(C#N)[C@H](c2c(F)cccc2F)[C@H]2CC3(CC=C12)OCCO3,inconclusive: -15.2% [inhibitor],
Cc1cccc(CNc2cc(-c3ccc(C(=O)N(C)C)cc3)ncn2)c1,inactive: -1.04%,
CN(C)c1ccc(/C=c2\sc3n(c2=O)CCCN=3)cc1,,"inconclusive: 25.1 µM [inhibitor, partial curve]"
COc1ccc(-c2cc(C(=O)OCC(=O)N(C)C)c3ccccc3n2)cc1,,"inconclusive: 39.8 µM [inhibitor, single point]"
CCn1c(CSc2nc3ccccc3s2)nc2ccccc21,,"inconclusive: 25.1 µM [inhibitor, partial curve]"
CCOC(=O)COc1ccc2c(c1)C(=O)CC1(CCN(C(C)=O)CC1)O2,,"inconclusive: 25.1 µM [inhibitor, partial curve]"
COc1ccc(Oc2ncc3nc(C)c(=O)n(-c4ccc(OC)cc4)c3n2)cc1,,"inconclusive: 25.1 µM [inhibitor, partial curve]"
O=c1nc(-c2ccccc2)c2cc(Cl)ccc2[nH]1,,"inconclusive: 25.1 µM [inhibitor, partial curve]"
Cc1ccccc1C(=O)N1CCCN(C(=O)c2ccccc2C)CC1,inactive: 0.404%,
COC(=O)CCc1c(C)c(C#N)c2nc3ccccc3n2c1N1CCCC1,,"inconclusive: 3.98 µM [inhibitor, full curve]"
Cc1nc2cnc(N3CCOCC3)nc2n(Cc2cccs2)c1=O,inactive: -3.94%,
C=C(CO)C1Cc2c(ccc3c2OC2COc4cc(OC)c(OC)cc4C2C3=O)O1 (configuration not stated),inactive: 0.458%,
CC(=O)n1nc2nc(C)cc(C)c2c1N,,"inconclusive: 20 µM [inhibitor, partial curve]"
CNc1oc(Cc2cccc3ccccc23)nc1C#N,inactive: -1.06%,
COc1cc(C(=O)NCc2ccc3c(c2)OCO3)ccc1OCc1c(C)noc1C,inactive: 2.23%,
Cc1nc2cnc(N3CCOCC3)nc2n(CCc2ccccc2)c1=O,inactive: -10.7%,
Cc1ccc(S(=O)(=O)C(C#N)c2nc3ccccc3nc2N2CC(C)OC(C)C2)cc1C (configuration not stated),,"inconclusive: 6.31 µM [inhibitor, partial curve]"
COCCOC(=O)C(C#N)c1nc2ccccc2nc1N1CCCC1 (configuration not stated),,"inconclusive: 15.8 µM [inhibitor, partial curve]"
N#Cc1cccc(-c2nc(Nc3ccncc3)c3ccccc3n2)c1,,"inconclusive: 31.6 µM [inhibitor, single point]"

SMILES,"activity change, negative = inhibition",Potency
CN1CCc2nc(NC(=O)c3cccc(S(=O)(=O)N4CCc5ccccc54)c3)sc2C1,,"inconclusive: 31.6 µM [inhibitor, partial curve]"
CCn1c2ccccc2c2nc3cc(S(=O)(=O)N4CCOCC4)ccc3nc21,,"inconclusive: 39.8 µM [inhibitor, single point]"
COc1ccc(N2CSC3=C(C#N)C(c4cccs4)CC(=O)N3C2)cc1 (configuration not stated),inconclusive: -16% [inhibitor],
CCCCC(=O)Nc1nn(C)c2nc3c(C)cccc3cc12,,"inconclusive: 3.16 µM [inhibitor, full curve]"
N#Cc1nc(COc2ccccc2)oc1N1CCC(Cc2ccccc2)CC1,inactive: 0.515%,
Cn1c(C(=O)N2CCCc3ccccc32)cc2c(=O)n3ccccc3nc21,,"inconclusive: 20 µM [inhibitor, partial curve]"
C[N+]12CCC(CC1)[C@@H](OC(=O)C(O)(c1ccccc1)c1ccccc1)C2,inactive: 0.305% [at 25.7 µM],
Nc1c(C(=O)NC2CCCC2)c2nc3ccccc3nc2n1N,,"inconclusive: 20 µM [inhibitor, partial curve]"
Cc1c(-c2ccccc2)nc(N)c(C#N)c1-c1ccco1,,"inconclusive: 25.1 µM [inhibitor, partial curve]"
O=C1C2C3CCCC3=C3CCCC3C2C(=O)N1c1cccc(Cl)c1 (configuration not stated),inactive: -4.6%,
CCO/C=N/c1c(C#N)c2c(c(=S)n1C)COC(C)(C)C2,,"inconclusive: 25.1 µM [inhibitor, partial curve]"
Clc1cccc(-c2nc3nc4ccccc4nc3n2Cc2ccco2)c1,,"inconclusive: 31.6 µM [inhibitor, single point]"
CC1CCC(NC(=O)CN2C(=O)C3CCCN3c3ncc(Cl)cc32)CC1 (configuration not stated),,"inconclusive: 31.6 µM [inhibitor, partial curve]"
COc1cc(C(=O)Nc2nnc(-c3sccc3C)s2)cc(OC)c1OC,inconclusive: -18.5% [inhibitor],
CCOC(=O)CN=C1CC(C)(C)CC2=C1Sc1ncnc(N(C)C)c1N2,,"inconclusive: 25.1 µM [inhibitor, partial curve]"
CCc1ccc2c(c1)CCCN2C(=O)c1ccccc1C(=O)O,,"inconclusive: 25.1 µM [inhibitor, partial curve]"
COCCCNC(=O)CSc1nc2ccc(N3CCOCC3)cc2c(=O)n1CCc1ccccc1,,"inconclusive: 20 µM [inhibitor, partial curve]"
COc1cc2cc(C(c3nnnn3Cc3ccc(F)cc3)N3CCCCCC3)c(=O)[nH]c2cc1OC (configuration not stated),inconclusive: -15.5% [inhibitor],
Cc1c2cnccc2c(C)c2c1c1ccccc1n2CCOC(=O)c1ccccc1,inconclusive: -16.4% [inhibitor] [at 11.5 µM],
O=C(COC(=O)c1cccs1)c1ccccc1,inactive: 1.13%,
COc1cc(C(=O)N(CCc2ccccc2)C2CC3CCC(C2)N3C)cc(OC)c1OC (configuration not stated),inactive: 1.52%,
c1ccc2c(c1)NC1(CCCC1)n1c-2nc2ccccc21,,"inconclusive: 25.1 µM [inhibitor, partial curve]"
COc1ccc(Br)cc1CNc1ccc(O)cc1,,"inconclusive: 25.1 µM [inhibitor, partial curve]"
CCN(CC)S(=O)(=O)c1cccc(C(=O)Nc2nc3cc4c(cc3s2)OCCO4)c1,,"inconclusive: 25.1 µM [inhibitor, partial curve]"

SMILES,"activity change, negative = inhibition",Potency
COc1ncc2nc(-c3cc(F)cc(F)c3)c(=O)n(-c3ccccc3)c2n1,,"inconclusive: 12.6 µM [inhibitor, partial curve]"
COc1ccc2cc(C#N)c(NC(C)C)nc2c1,,"inconclusive: 31.6 µM [inhibitor, partial curve]"
CCOc1ccc2[nH]c(=O)c(CN(Cc3cccs3)C(CC)c3nnnn3C(C)(C)CC)cc2c1 (configuration not stated),,"inconclusive: 31.6 µM [inhibitor, single point]"
COc1ccc(C(=O)/C=C/Nc2cc(C)on2)c(OC)c1,inactive: -1.48%,
Cc1ccc(CNc2ccc(O)cc2)cc1,,"inconclusive: 25.1 µM [inhibitor, partial curve]"
COC(=O)C1=C(C)N=c2s/c(=C/c3ccoc3)c(=O)n2C1c1ccccc1 (configuration not stated),inactive: -10.9%,
COc1ccc(N2CCn3c2nc2c3c(=O)n(CCCc3ccccc3)c(=O)n2C)c(OC)c1,inactive: -2.59%,
CC1CN(c2nc3ccccc3nc2C(C#N)C(=O)NCc2ccc3c(c2)OCO3)CC(C)O1 (configuration not stated),,"inconclusive: 3.98 µM [inhibitor, full curve]"
CCn1c(C)nc2cc(-c3nc4n(n3)Cc3ccccc3-4)ccc21,inactive: 0.871%,
COc1cccc(/C=C2\N=C(SC)SC2=O)c1OC,inconclusive: -16.8% [inhibitor],
CC1(C)Cc2c(C#N)c(N)sc(=S)c2CS1,,"inconclusive: 25.1 µM [inhibitor, partial curve]"
COc1ccc(C(C(=O)NC2CCCC2)N(C(=O)c2ccco2)c2ccc3c(c2)OCO3)cc1OC (configuration not stated),inactive: -0.782%,
CCOC(=O)C1CCN(CC(=O)c2c(C)[nH]c3ccccc23)CC1,inconclusive: -16.4% [inhibitor],
COc1ccc(-c2cc(C(F)(F)F)n3ncc(C(=O)NCC4CCCO4)c3n2)cc1OC (configuration not stated),inactive: -5.27%,
COc1ccc(S(=O)(=O)Nc2ccc(O)c3ccccc23)cc1,,"inconclusive: 31.6 µM [inhibitor, partial curve]"
Cn1cccc1C(=O)NC(=O)COC(=O)Cc1coc2ccc3ccccc3c12,inconclusive: -15.3% [inhibitor],
CCN1CCC2(CC1)C(C#N)=C(N)Oc1c2sc2nc(C)cc(C)c12,,"inconclusive: 31.6 µM [inhibitor, partial curve]"
O=C(c1cnccn1)N1CCC2(CC1)CN(c1ccncc1)C2,,"inconclusive: 3.98 µM [inhibitor, single point]"
CCOc1ccccc1N1CCN(S(=O)(=O)c2ccc(Cl)s2)CC1,inactive: -3.44%,
CSc1ccc(-c2c(C#N)c(N)nc3c2c(C)nn3-c2ccccc2)cc1,,"inconclusive: 25.1 µM [inhibitor, partial curve]"
COCc1cc(=O)[nH]c(/N=C(\N)Nc2ccc(C)cc2)n1,,"inconclusive: 20 µM [inhibitor, partial curve]"
Cc1ccc2[nH]c(=O)c(C(c3nnnn3C(C)(C)C)N(Cc3ccco3)CC3CCCO3)cc2c1 (configuration not stated),,"inconclusive: 31.6 µM [inhibitor, partial curve]"
C=CCSc1nnc2c(n1)OC(c1cccnc1)Nc1ccccc1-2 (configuration not stated),inactive: 0.202%,
COc1ccc(-c2nc3cnc(Nc4ccccc4)nc3n(C[C@H]3CCCO3)c2=O)cc1,,"inconclusive: 3.16 µM [fluorescent, full curve]"
